For 22 molecules, binding signal results are on record in paper PMC12136788.

B1: 22999476_23000114_3599_CDS_ENSG00000068793_ENST00000560848|human|control|control (ssRNA)
RNA: GGGAGUUCUACAGUCCGACGAUCCCCAUCACCAAAGCACUGCUCGACUGUGAACUCGUGUGUCCCCACGGGAAUGCAGUAGACAAACUGCAUGGCACUCCACAGUCUGUGAAACUCCACACACUCGUCCACAUGCAUGACCCCCAACAGAGGAUUGAGCAUCA
B2: chr14:78183846:78183847:+_ENSG00000119705_ENST00000557342|hu_hu|hu_hu_hu_mus_False|8_28 (ssRNA)
RNA: GGGAGUUCUACAGUCCGACGAUCUCUCAGAAAUCUUUCUUCAUCAGAUGUUUGAGCUCCGUGCAAAGCCUUUGCUCUUUGAGCUUGAACGUGGAUCUAUGGGAGGGCUAUAAUAUGCAGAAAAGGUUGUAGUGCAUUUAAAGACAACAGAGGAUUGAGCAUCA
B3: 104379465_104380804_1343_3pUTR_ENSG00000139372_ENST00000392872|human|control|control (ssRNA)
RNA: GGGAGUUCUACAGUCCGACGAUCUCUGUAAAUGACUGGGUCAUCCACUGCCCAUUAGGAAUGCCACUGAAAGCUGAUUCUCCUCUUAACUCCACGCUCUCAAUUAGCCCAUUUGAAGAGAAGCCACAAGGUUCACUGCUGCAUCAACAGAGGAUUGAGCAUCA
B4: chrX:71549400:71549401:+_ENSMUSG00000019087_ENSMUST00000019231|mus_hu|mus_mus_mus_hu_False|38_58 (ssRNA)
RNA: GGGAGUUCUACAGUCCGACGAUCGCAGUAGGAAGAGGGAAGCUCUUCAGUCCAGUGCGCUGCAGGGUGGGAAAGCACAACCUAGACCACCGUCCCACCUCAAUUCCCCCCACUGGCACAGGGUCACACAAUCUGGGUCAAAGACAACAGAGGAUUGAGCAUCA
B5: chr7:6441565:6441566:+_ENSG00000136238_ENST00000348035|hu_mus|motif|central (ssRNA)
RNA: GGGAGUUCUACAGUCCGACGAUCGGUGAUGGGAGUCAGCUUCUUCUCCUUCAGCUUCUCAAUGGUGUCCUUAUCAUCCCGGAGAUCAAGCUUCGUCCCCACGAGGAUGAUAGGAGUAUUGGGACAGUGGUGUCGCACUUCAGGCAACAGAGGAUUGAGCAUCA
B6: chr22:22143041:22143042:-_ENSG00000100030_ENST00000215832|hu_mus|FALSE|FALSE (ssRNA)
RNA: GGGAGUUCUACAGUCCGACGAUCGAUGUGAUUCAGCUGGUCAAGGUAAUGCUUUCCUGGGAAGAUAGGCCUGUUGGAUAGCAUCUCUGCCAGGAUGCAGCCCACAGACCAAAUAUCAAUGGACUUGGUAUAACCCUUGGAAUUCAACAGAGGAUUGAGCAUCA
B7: chr16:38184571:38184572:+_ENSMUSG00000022812_ENSMUST00000023507|mus_mus|FALSE|FALSE (ssRNA)
RNA: GGGAGUUCUACAGUCCGACGAUCCAGCUGAUACAUAUACAACUUGACAUAGAUCACAGGGAGUGUCUGCUUGGCUCGACUAUAGUGUCUGGCGACUCUGUACACUGUCUCCGGAACAUAGUCCAGCACCAGGUUAAGGUAGACCAACAGAGGAUUGAGCAUCA
B8: 15274082_15275403_1402_CDS_ENSG00000131375_ENST00000253693|human|control|control (ssRNA)
RNA: GGGAGUUCUACAGUCCGACGAUCCCAGCCAGUCAGUGCAUGAAGAUCAAUAUUGGAGUUGGAUCCUGGAAAAUCAUAUCCUCCCAUGACUUUCAUGUAUGCUUUUUCUAUGAGAGAAACCCAUAAUUCACUUUUGUUGUUGGACAACAGAGGAUUGAGCAUCA
B9: chr7:30640729:30640730:+_ENSG00000106105_ENST00000389266|hu_hu|FALSE|FALSE (ssRNA)
RNA: GGGAGUUCUACAGUCCGACGAUCCUGAAUAAUAUUGUUCUUCAAAGCACAGCCAACUGGCCCAAAGUCAUACAGACCACUAACACCUCCAUAAAUAGCAAAAGCUUGAUCAUAGAAAAACCUCCUCUUCAGGGUAUCUUCCAUCAACAGAGGAUUGAGCAUCA
B10: chr16:45382771:45382772:-_ENSMUSG00000022661_ENSMUST00000163230|mus_mus|mus_mus_mus_hu_True|78_88 (ssRNA)
RNA: GGGAGUUCUACAGUCCGACGAUCCUGGGUCAUGUUAUAAGACAAAUGGAUAGGGAGAGCAUGCUUUUCAAAAAAUGUGAGCUAUUGUCUAAGACUAACAAUAUUUAUCUAGCUAUAAAAAUAAGUUAAAUGAAUAAGUUAAGACAACAGAGGAUUGAGCAUCA
B11: chr6:17796276:17796277:+_ENSMUSG00000029534_ENSMUST00000053148|mus_mus|FALSE|FALSE (ssRNA)
RNA: GGGAGUUCUACAGUCCGACGAUCUCUCCAAGCUUUUUGCAUUAUUGCAUCUGCAGGGCGAAGAUGAUCUGAAUCACAAGUAAAGAAUGUCUGGUGGUCCUGGGCAGAGAGGUUCAUGUCAUAGUAGGUCAGAGGCUCUCGUCCCAACAGAGGAUUGAGCAUCA
B12: chr4:19447016:19447017:-_ENSMUSG00000028228_ENSMUST00000029885|mus_hu|FALSE|FALSE (ssRNA)
RNA: GGGAGUUCUACAGUCCGACGAUCUGUGAAAACUGAUAAUUUAGAAAUUGUAAAUGCUUUUAUUCAAAACUGUAAAAAGGCACCAAUUACCCUAGUUUGCUGGAAUCACAGUUCUUAUGAAUAAUAGCAUCUACUGAUGAACAUCAACAGAGGAUUGAGCAUCA
B13: 35072574_35072694_612_5pUTR_ENSG00000165280_ENST00000358901|human|control|control (ssRNA)
RNA: GGGAGUUCUACAGUCCGACGAUCAGCGGCAGCGACGACUCAAACGACGGUCGCAGACGCUUCGCUGAGACUGAGCCGAGAAGAGCCGAAUCAUCGGAAGGGAAGCUGCUCCCACCUCAGCCAAUCAGCGCCUGCCCUGCGGACCAACAGAGGAUUGAGCAUCA
B14: chr1:46159212:46159213:+_ENSG00000159596_ENST00000372025|hu_mus|hu_hu_hu_mus_True|38_48 (ssRNA)
RNA: GGGAGUUCUACAGUCCGACGAUCUCUGAUCCCUCCCAAGAAAGCUAGGAAACCGGCUCCAUAAGCCAUCUGAGUGAAAGCUAGGACGGGAAUAUAAGUUUUUGUCAUUACCAUGAGAAGUGGGGGAGCAGUAAAGGGGAUUAACAACAGAGGAUUGAGCAUCA
B15: 10103097_10106107_2642_CDS_ENSMUSG00000056763_ENSMUST00000071087|mouse|control|control (ssRNA)
RNA: GGGAGUUCUACAGUCCGACGAUCGGAGCUUUCGUGAAUGAAGGAACUUAUGAUGGUGUCGACUGAAGGAGGUCUUUGGAGUUUGCUUGCAAUUUUGUUCUGAAGAGCAGGAACUACAGGAGAAGGCUGUCUCAAGUGCUUUGUCAACAGAGGAUUGAGCAUCA
B16: chr5:106037793:106037794:+_ENSMUSG00000054720_ENSMUST00000067924|mus_hu|FALSE|FALSE (ssRNA)
RNA: GGGAGUUCUACAGUCCGACGAUCCUUUGUGUACAUUUUGUGUGAAAAGGAAAAAAAAAUAGGAAAGGCAUUAAGACUACCUAAUUAUUUAUACUGUAUUUGGUAGAAGCGUGUUUCAGUCAAACUUUAACGAAAAAUAAGUUACAACAGAGGAUUGAGCAUCA
B17: chr14:78183846:78183847:+_ENSG00000119705_ENST00000557342|hu_hu|hu_hu_hu_mus_False|8_98 (ssRNA)
RNA: GGGAGUUCUACAGUCCGACGAUCUCUCAGAAAUCUUUCUUUCUUUUAUGUUUGAGCUCCGUGCAAAGCCUUUGCUCUUUGAGCUUGAACGUGGAUCUAUGGGAGGGAAAGCACUGUCAGAAAAGGUUGUAGUGCAUUUAAAGACAACAGAGGAUUGAGCAUCA
B18: chr4:76721835:76721836:+_ENSG00000138768_ENST00000264904|hu_mus|hu_hu_hu_mus_True|68_108 (ssRNA)
RNA: GGGAGUUCUACAGUCCGACGAUCGUUGGCUGGGGUUUUCUGAGACGCUCUGGAAUAUAACUCAUGUUGCUAAUAAAAUCCUAGUUUCUCUAUGAAAUUCUCUUUGCCAAUCCUCUUCUCUAUUAGUUGCUUUAGUUUCUCUUUCAACAGAGGAUUGAGCAUCA
B19: chr11:46405157:46405158:+_ENSG00000110492_ENST00000395566|hu_hu|hu_hu_hu_mus_False|58_88 (ssRNA)
RNA: GGGAGUUCUACAGUCCGACGAUCCCCUCCCCACUUUGGGCACUUGGUGAGAGGGACAGAGGACAGGCGUGAUUGACAAAGCUAACGGGAAGACAAAAGGCACUGGUGGGUUAUAUCUUGGGCCUGUGGGAGAGGAGGGCUCCGCAACAGAGGAUUGAGCAUCA
B20: chr2:61749799:61749800:-_ENSG00000082898_ENST00000401558|hu_hu|FALSE|FALSE (ssRNA)
RNA: GGGAGUUCUACAGUCCGACGAUCUCCUUCGCACUGGUUCCUUGGAAGAAUCUUCCACCUUGUUUUUAUCACAUUUUCCAAAAUUUGUAGUCCAUAGUAUUUCGUAUUCAUAUUCUGAGAAAAUUCCAAAAUUGUGUCGACUCUCAACAGAGGAUUGAGCAUCA
B21: chr7:149068622:149068623:-_ENSMUSG00000025139_ENSMUST00000001950|mus_mus|FALSE|FALSE (ssRNA)
RNA: GGGAGUUCUACAGUCCGACGAUCAGACAGGUACUGAGUGAGGUUCCUGCUCUGCAGUGUCUGCAGUCUGCUGGUAACACUAAGUGGACCACUUAAGGAGGUUCUGCCUGCCUGACUCAUCCACCCUGCAAGAGGGCAUCUGCUCAACAGAGGAUUGAGCAUCA
B22: chr10:5892124:5892125:-_ENSMUSG00000061759_ENSMUST00000095893|mus_hu|FALSE|FALSE (ssRNA)
RNA: GGGAGUUCUACAGUCCGACGAUCCUUGAAAUUAUAUAUUUAACCUGAAAAAAAGUUGCUAAAAUUCCAAUAUAAAUGUAAAUAUCUUUAACUUGCUUAACCCAGCUAUCCCCAAAACAGUGUAGUGGGGCAAAAUGUUCAAAACAACAGAGGAUUGAGCAUCA

Some of the results follow.

The target of this assay is T1, UNK ZnF1-3 (human, UniProt Q9C0B0 31-174).
T1 sequence: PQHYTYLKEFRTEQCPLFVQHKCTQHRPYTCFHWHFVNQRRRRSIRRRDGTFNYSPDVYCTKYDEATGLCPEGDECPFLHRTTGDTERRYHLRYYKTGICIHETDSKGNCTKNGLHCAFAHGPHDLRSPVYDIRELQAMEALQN
The experiment in a line: nsRBNS (natural sequence RNA bind-n-seq); RBNS binding buffer (assumed for nsRBNS): 25 mM Tris pH 7.5, 150 mM KCl, 3 mM MgCl2, 0.01% Triton X-100, 500 ug/ml BSA, 20 U/ml SUPERase-In, 4 C; UNK is unkempt and MSI1 is Musashi-1; names of the RNAs are library labels; protein concentration not given here; high values mean tight binding.
The molecule B1 had a binding signal of 0.705 enrichment R.

Molecule B2 registered a binding signal of 1.86 enrichment R.

In turn, B3 returned a binding signal of 0.988 enrichment R.

With B4, the binding signal came out at 1.39 enrichment R.

Consider B5, for which the binding signal was 0.652 enrichment R.

B6: the binding signal came to 0.792 enrichment R.

Turning to B7, the binding signal was 0.898 enrichment R.

Consider B8, for which the binding signal was 0.756 enrichment R.

Molecule B9 yielded a binding signal of 1 enrichment R.

With B10, the binding signal is 2.57 enrichment R.

Take B11: the binding signal stood at 1.38 enrichment R.

Take B12: the binding signal came out at 0.637 enrichment R.

Regarding B13, the binding signal is 0.72 enrichment R.

In the case of B14, the binding signal stood at 1.32 enrichment R.

For B15, the binding signal was determined as 1.36 enrichment R.

Molecule B16 gave a binding signal of 1.82 enrichment R.

Regarding B17, the binding signal came to 1.02 enrichment R.

Turning to B18, the binding signal turned out to be 0.479 enrichment R.

B19 registered a binding signal of 2.93 enrichment R.

On to B20, for which the binding signal stood at 0.667 enrichment R.

B21 came in with a binding signal of 0.842 enrichment R.

In turn, B22 showed a binding signal of 1.91 enrichment R.
